Our source for the binding signal values is article PMC9911399, “Two distinct binding modes provide the RNA-binding protein RbFox with extraordinary sequence specificity”.

To fix the notation:
T1: RBFOX1 RRM RbFoxmut (Fox-RRM*) (Homo sapiens, UniProt Q9NWB1 109-208, R118D;E147R;N151S;E152T)
T1 sequence: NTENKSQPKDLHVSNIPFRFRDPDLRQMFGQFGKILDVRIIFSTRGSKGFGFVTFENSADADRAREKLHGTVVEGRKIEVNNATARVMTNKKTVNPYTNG

B1: UGACAAA (DNA:RNA)
RNA: GGGAGACCGGAAUUCAGAUUGUCCUGACAAAUUAAAUCCCGUCGUAGCCACCA
DNA 1: CAATCTGAATTCCGGTCTCCC
DNA 2: TGGTGGCTACGACGGGATT
B2: AGUACAU (DNA:RNA)
RNA: B1 RNA with U25A, A27U, C28A, A29C, A31U
DNA 1: CAATCTGAATTCCGGTCTCCC
DNA 2: TGGTGGCTACGACGGGATT
B3: GGUAAAA (DNA:RNA)
RNA: B1 RNA with U25G, A27U, C28A
DNA 1: CAATCTGAATTCCGGTCTCCC
DNA 2: TGGTGGCTACGACGGGATT
B4: AAUUGGC (DNA:RNA)
RNA: GGGAGACCGGAAUUCAGAUUGUCCAAUUGGCUUAAAUCCCGUCGUAGCCACCA
DNA 1: CAATCTGAATTCCGGTCTCCC
DNA 2: TGGTGGCTACGACGGGATT
B5: UUGCAUA (DNA:RNA)
RNA: B1 RNA with G26U, A27G, A30U
DNA 1: CAATCTGAATTCCGGTCTCCC
DNA 2: TGGTGGCTACGACGGGATT
B6: UGCCAAU (DNA:RNA)
RNA: B1 RNA with A27C, A31U
DNA 1: CAATCTGAATTCCGGTCTCCC
DNA 2: TGGTGGCTACGACGGGATT
B7: GUGCUUC (DNA:RNA)
RNA: B4 RNA with A25G, A26U, U27G, U28C, G29U, G30U
DNA 1: CAATCTGAATTCCGGTCTCCC
DNA 2: TGGTGGCTACGACGGGATT
B8: GAAAUGG (DNA:RNA)
RNA: B4 RNA with A25G, U27A, U28A, G29U, C31G
DNA 1: CAATCTGAATTCCGGTCTCCC
DNA 2: TGGTGGCTACGACGGGATT
B9: UCAGGAU (DNA:RNA)
RNA: B1 RNA with G26C, C28G, A29G, A31U
DNA 1: CAATCTGAATTCCGGTCTCCC
DNA 2: TGGTGGCTACGACGGGATT
B10: UGGCAUU (DNA:RNA)
RNA: B1 RNA with A27G, A30U, A31U
DNA 1: CAATCTGAATTCCGGTCTCCC
DNA 2: TGGTGGCTACGACGGGATT
B11: UUUAGCA (DNA:RNA)
RNA: B4 RNA with A25U, A26U, U28A, G30C, C31A
DNA 1: CAATCTGAATTCCGGTCTCCC
DNA 2: TGGTGGCTACGACGGGATT
B12: UAUUUGG (DNA:RNA)
RNA: B4 RNA with A25U, G29U, C31G
DNA 1: CAATCTGAATTCCGGTCTCCC
DNA 2: TGGTGGCTACGACGGGATT
B13: ACGGCAG (DNA:RNA)
RNA: B4 RNA with A26C, U27G, U28G, G29C, G30A, C31G
DNA 1: CAATCTGAATTCCGGTCTCCC
DNA 2: TGGTGGCTACGACGGGATT
B14: ACCCGGC (DNA:RNA)
RNA: B4 RNA with A26C, U27C, U28C
DNA 1: CAATCTGAATTCCGGTCTCCC
DNA 2: TGGTGGCTACGACGGGATT
B15: AUAAGCU (DNA:RNA)
RNA: B4 RNA with A26U, U27A, U28A, G30C, C31U
DNA 1: CAATCTGAATTCCGGTCTCCC
DNA 2: TGGTGGCTACGACGGGATT
B16: UGCUAGC (DNA:RNA)
RNA: B4 RNA with A25U, A26G, U27C, G29A
DNA 1: CAATCTGAATTCCGGTCTCCC
DNA 2: TGGTGGCTACGACGGGATT
B17: GCUACUA (DNA:RNA)
RNA: B4 RNA with A25G, A26C, U28A, G29C, G30U, C31A
DNA 1: CAATCTGAATTCCGGTCTCCC
DNA 2: TGGTGGCTACGACGGGATT
B18: UUAAGCA (DNA:RNA)
RNA: B1 RNA with G26U, C28A, A29G, A30C
DNA 1: CAATCTGAATTCCGGTCTCCC
DNA 2: TGGTGGCTACGACGGGATT
B19: CACUACC (DNA:RNA)
RNA: B4 RNA with A25C, U27C, G29A, G30C
DNA 1: CAATCTGAATTCCGGTCTCCC
DNA 2: TGGTGGCTACGACGGGATT
B20: AGUGGUC (DNA:RNA)
RNA: B4 RNA with A26G, U28G, G30U
DNA 1: CAATCTGAATTCCGGTCTCCC
DNA 2: TGGTGGCTACGACGGGATT
B21: CAUAGCA (DNA:RNA)
RNA: B4 RNA with A25C, U28A, G30C, C31A
DNA 1: CAATCTGAATTCCGGTCTCCC
DNA 2: TGGTGGCTACGACGGGATT
B22: CAACAGC (DNA:RNA)
RNA: B4 RNA with A25C, U27A, U28C, G29A
DNA 1: CAATCTGAATTCCGGTCTCCC
DNA 2: TGGTGGCTACGACGGGATT
B23: UAACGGA (DNA:RNA)
RNA: B1 RNA with G26A, A29G, A30G
DNA 1: CAATCTGAATTCCGGTCTCCC
DNA 2: TGGTGGCTACGACGGGATT
B24: CAACGCG (DNA:RNA)
RNA: B4 RNA with A25C, U27A, U28C, G30C, C31G
DNA 1: CAATCTGAATTCCGGTCTCCC
DNA 2: TGGTGGCTACGACGGGATT
B25: AAGUAGA (DNA:RNA)
RNA: B4 RNA with U27G, G29A, C31A
DNA 1: CAATCTGAATTCCGGTCTCCC
DNA 2: TGGTGGCTACGACGGGATT
B26: AUCAGUA (DNA:RNA)
RNA: B4 RNA with A26U, U27C, U28A, G30U, C31A
DNA 1: CAATCTGAATTCCGGTCTCCC
DNA 2: TGGTGGCTACGACGGGATT
B27: GCUAGAU (DNA:RNA)
RNA: B4 RNA with A25G, A26C, U28A, G30A, C31U
DNA 1: CAATCTGAATTCCGGTCTCCC
DNA 2: TGGTGGCTACGACGGGATT
B28: CAUAGGC (DNA:RNA)
RNA: B4 RNA with A25C, U28A
DNA 1: CAATCTGAATTCCGGTCTCCC
DNA 2: TGGTGGCTACGACGGGATT
B29: UGGGUGG (DNA:RNA)
RNA: B1 RNA with A27G, C28G, A29U, A30G, A31G
DNA 1: CAATCTGAATTCCGGTCTCCC
DNA 2: TGGTGGCTACGACGGGATT
B30: GGGUAGG (DNA:RNA)
RNA: B4 RNA with A25G, A26G, U27G, G29A, C31G
DNA 1: CAATCTGAATTCCGGTCTCCC
DNA 2: TGGTGGCTACGACGGGATT
B31: GCGCGCU (DNA:RNA)
RNA: B4 RNA with A25G, A26C, U27G, U28C, G30C, C31U
DNA 1: CAATCTGAATTCCGGTCTCCC
DNA 2: TGGTGGCTACGACGGGATT

Numbering of substitutions follows the chain as printed; changes in the protein carry UniProt numbers. The list shows a part of the results.

In this assay the target is T1, RBFOX1 RRM RbFoxmut (Fox-RRM*). Nature of the assay: EMSA; HiTS-Eq, 1 nM pool, 10 min; buffer printed only for the single-RNA assays: 10 mM Tris pH 7.5, 150 mM NaCl, 3.4 mM EDTA, 0.001% NP-40, 30 C. Particulars: tags: His6 N-terminal (pET28a); label: 5' 32P. In outline: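 Purified RbFox RRM, wild type or mutant, was incubated for 10 min in 50 µL with 1 nM of a 5′-radiolabelled RNA pool carrying 7 randomized nucleotides, whose flanks were annealed to DNA oligonucleotides, over a series of increasing protein concentrations. Unbound RNA was resolved on 8% native PAGE, cut out, reverse-transcribed, barcoded by PCR and sequenced on an Illumina HiSeq 2500. Relative association constants were derived from changes in read counts for each RNA species versus the control reaction and normalised to the cognate motif.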
Background: In EMSA bound probe runs differently from free probe, usually more slowly.
B1: the binding signal was 0.0618 KA relative to UGCAUGU.
For B2, the binding signal was 0.0854 KA relative to UGCAUGU.
For B3, the binding signal is 0.0612 KA relative to UGCAUGU.
For B4, the binding signal was 0.114 KA relative to UGCAUGU.
In the case of B5, the binding signal is 0.23 KA relative to UGCAUGU.
For B6, the binding signal is 0.0611 KA relative to UGCAUGU.
For the molecule B7, the binding signal was 0.15 KA relative to UGCAUGU.
The result for B8 reads 0.0639 KA relative to UGCAUGU; that for B9, 0.104 KA relative to UGCAUGU; that for B10, 0.1 KA relative to UGCAUGU.
With B11, the binding signal is 0.12 KA relative to UGCAUGU.
For B12, the binding signal is 0.102 KA relative to UGCAUGU.
As for B13, the binding signal is 0.102 KA relative to UGCAUGU.
As to B14, the binding signal is 0.0777 KA relative to UGCAUGU.
For B15, the binding signal is 0.0966 KA relative to UGCAUGU.
As for B16, the binding signal was 0.139 KA relative to UGCAUGU.
For B17, the binding signal was 0.114 KA relative to UGCAUGU.
Take B18: the binding signal was 0.137 KA relative to UGCAUGU.
The result for B19 reads 0.112 KA relative to UGCAUGU; that for B20, 0.179 KA relative to UGCAUGU; that for B21, 0.143 KA relative to UGCAUGU.
In the case of B22, the binding signal was 0.053 KA relative to UGCAUGU.
Regarding B23, the binding signal is 0.0546 KA relative to UGCAUGU.
B24: the binding signal is 0.118 KA relative to UGCAUGU.
On to B25, for which the binding signal is 0.132 KA relative to UGCAUGU.
Consider B26, for which the binding signal was 0.14 KA relative to UGCAUGU.
With B27, the binding signal is 0.122 KA relative to UGCAUGU.
The result for B28 reads 0.0883 KA relative to UGCAUGU; that for B29, 0.16 KA relative to UGCAUGU; that for B30, 0.095 KA relative to UGCAUGU.
With B31, the binding signal was 0.107 KA relative to UGCAUGU.
